Results published in the supplement of paper PMC5499739.
Whole data set: some 16,000 sequences, median “Z-score” near -0.37, cut for the highest 2% near 3.2. The list shows a part of the results.

Test system: RBM10 RRM1-ZnF (GST-tagged construct)
Test: RNAcompete 7-mer binding Z-score; higher = stronger binding preference
Description: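 RNAcompete: 20 pmol GST-tagged RBM10 RNA-binding constructs were incubated with a designed RNA pool of about 241,000 sequences up to 41 nt (1.5 nmol) on glutathione beads for 30 min at 4 °C and washed. Bound RNAs were identified by microarray hybridisation. Each RNA 7-mer is scored by a one-sided Z-score of its enrichment, computed over probes that contain the 7-mer within longer pool sequences.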

Sequence | RNAcompete 7-mer binding Z-score
AUUUCUA | -0.876
GAAAGAU | 0.456
GGAGGAC | 1.86
GGACGCU | 0.153
CUCCUAU | -0.844
GAGACUC | -0.435
CCACGCU | -0.5
GUUGUGC | 0.391
AUGUGGG | 3.84
GAGGUAC | 1.37
GGAAGCC | 0.511
GCCAAAU | -0.711
ACGUAGA | 0.391
CUAUGUA | -0.451
GUAGUAA | 0.374
CUUACUG | -0.665
CUGAAAG | -0.269
GGCAGGG | 3.16
GCAGCAA | -0.126
UCGAAGC | -0.36
UUAAUAC | -0.578
UGGGAGG | 4.4
UGCCAGA | -0.626
AACUGCU | -0.753
AAUGGUA | 2.63

Sequence | RNAcompete 7-mer binding Z-score
ACCUGGG | 0.469
GCCAACC | -0.558
GCGCCCU | -0.386
CGAUACA | -0.392
CAACGUA | -0.353
GGCUGGU | 1.31
CCUUUGC | -1.02
CGUGGAU | 1.34
UCUUGAG | -0.629
CUCAAGG | 0.218
GCCUUCA | -0.779
AAUAGAU | 0.0885
CGCGUGC | -0.223
UUCCACG | -0.636
CUACGAU | -0.292
AAAGUAU | -0.21
ACGCGCU | -0.457
UACUGUG | -0.194
UUAUUGG | 0.374
AAAAGAU | -0.23
UAACUAA | -0.448
CUCGUUA | -0.649
CACUGGC | -0.308
CCACAUG | -0.373
UACGCUU | -0.73

Sequence | RNAcompete 7-mer binding Z-score
UCGGACG | 0.0235
CGGACUG | 0.248
CUUUCGU | -0.854
UAGAGAA | 0.573
UAAGCCG | -0.474
AGUGUGU | 0.589
CGGCAGC | -0.0869
CCGAGAG | -0.334
CAUAGCG | -0.467
UAGACGG | 1.47
UGAAUAA | -0.155
UUAAAAC | -0.578
AGUUAUG | 0.14
CACAUGA | -0.409
CCACUCA | -0.633
CCAACUU | -0.828
ACAUAAC | -0.594
ACGUGAC | -0.249
AAGAUAG | 0.829
AGUAGAU | 0.335
CUUGACG | -0.548
UCAGACC | -0.675
CGCCCAC | -0.431
UCCAAUU | -0.707
CUGCGUU | -0.454

Sequence | RNAcompete 7-mer binding Z-score
GUUGAUU | -0.171
GUCUUAC | -0.678
CGAAAGU | -0.435
CCCAUCC | -0.5
CGGUCAC | -0.0187
CGCAGCC | -0.675
AUAUGGU | 2.02
UCAAAAC | -0.392
UUCUCCG | -0.594
CUUGGCU | -0.561
CUCCGUA | -0.668
CCUCGCU | -0.681
CAAACUA | -0.591
UGCGACG | 0.238
CCAAAGG | 0.0398
UGGAAAA | 1.39
UAAAUGG | 1.44
UCUCAAA | -0.714
AAACUGG | 0.696
GAGGUGC | 1.81
GGUAACC | 0.979
ACUCCGA | -0.685
GGUUUAA | 0.735
GACGUUA | -0.188
CAUCUAG | -0.396

Sequence | RNAcompete 7-mer binding Z-score
UUCGCUA | -0.811
CAGACCA | -0.574
AGAGCUA | -0.415
CCACAAG | -0.522
AUAUUAU | -0.402
CAAUAGU | -0.279
AAACAUU | -0.587
UUUGAAG | -0.178
UUCCCUA | -0.828
ACUUCUC | -0.841
GCCUCUC | -0.75
AUUAACU | -0.652
GUUUUGC | -0.0837
GCGAGAC | 0.251
UUUGGCU | -0.568
AUCUGUG | -0.623
UGACCCU | -0.591
UAUCAUA | -0.493
CUGCUCC | -0.74
AAAAUUG | 0.144
GUCUCGG | 0.15
AGUACUC | -0.704
UCGCCAU | -0.678
CGCCGUG | -0.204
GGGAGGG | 4.74

Sequence | RNAcompete 7-mer binding Z-score
UCGGCGA | 0.0593
AAUCAUC | -0.753
AGCAGAA | 0.693
AACCAAC | -0.646
CUGACGG | 0.592
CUCAUCU | -0.883
AAGCAUU | -0.665
UCUCACC | -0.785
AAUUUUA | -0.639
GGAGAUC | 1.12
UUUUCUG | -0.646
CACCGCU | -0.636
GUCUUAG | -0.535
UAGGAUG | 2.39
UAAAACU | -0.574
UCUUAUU | -0.896
CGUCAUU | -0.675
AAGUUCA | -0.389
CGGGGAC | 2.19
CCGGGAU | 0.55
CAAGGCG | 0.829
CCAUAGC | -0.805
CAUGAGC | -0.383
CGAGGUU | 0.846
CGUAAGG | 0.833

Sequence | RNAcompete 7-mer binding Z-score
GCGUCAU | -0.6
ACGUUGA | 0.0105
UGUAAAU | -0.272
GUCGAAC | -0.305
GUUAAGU | 0.0495
CGGCCCU | -0.565
CCUAUAU | -0.733
AAGUCAA | -0.123
UCCCCUA | -0.574
AGGCUGC | 0.00404
UCUCCAA | -0.72
CGGACCU | -0.493
CUAAAUA | -0.594
GUCCGUG | -0.253
AGUAGUG | 1.09
CCUGGUG | -0.0512
GAGCCAG | -0.106
GCCAGGG | 1.93
CUCGGCU | -0.467
UGGAAAU | 1.1
CAUUGCG | -0.464
CCGAUAU | -0.642
UGUUGCG | -0.0155
AUUCUUC | -0.811
AAAGACU | -0.298

Sequence | RNAcompete 7-mer binding Z-score
GACUGAA | -0.23
GAUAGGC | 0.852
UUCUGGG | 0.283
CUAGCUA | -0.727
CCUCCAA | -0.818
UGGCGUG | 1.21
UGUAACC | -0.47
CGCCAUU | -0.805
CCUACCA | -0.711
CUUACGA | -0.811
CGAAAUA | -0.376
ACUGCCU | -0.854
GCUACAG | -0.223
GGUAGUU | 0.771
CGAACUC | -0.789
UACGUAG | 0.173
CCACACG | -0.311
CACCCGC | -0.392
ACCCCUA | -0.555
ACAUCUG | -0.626
UCUAACG | -0.623
UUACGGG | 1.26
UUCUCUG | -0.756
CCAACGG | 0.173
ACAUCUA | -0.642

Sequence | RNAcompete 7-mer binding Z-score
ACAAAAU | -0.561
UCACUAG | -0.279
AACUGCC | -0.704
UCUGGUG | 0.342
UGCCGGC | -0.454
CAAGCGC | -0.587
ACUAGCA | -0.415
GCUAUAG | 0.163
CGCGGGC | 0.719
UAGCGUC | -0.535
AAUAUUG | -0.275
CUUGCCU | -0.824
ACCUCUU | -0.899
UUCCAAG | -0.642
AGAUUAG | 0.755
CCGAACU | -0.818
UUGAACU | -0.539
AAGACAG | 0.339
AACUGGU | 0.118
GGCGGCG | 1.13
CCCCUGA | -0.357
GGAUUCC | -0.275
CGUUUGG | 0.296
CUUGUAC | -0.779
GAUAAUG | 0.703

Sequence | RNAcompete 7-mer binding Z-score
AACCGGG | 0.914
CUUGUGC | -0.717
UUAGGUG | 1.46
AGUCCUC | -0.604
CACGUAU | -0.448
UGGUCAC | 0.173
UGAGGCA | 0.904
UUUGGAG | 1.06
CAGUGCA | -0.23
ACGAGCA | 0.000789
GUCCAUC | -0.561
GGCGUCG | 0.68
UUCGAUC | -0.769
CACCCCA | -0.256
AAUGAUA | 0.00404
GCGACAG | 0.54
UACAGGA | 1.31
AGAGUAU | 0.115
UUGCAAC | -0.626
GGUGCAU | 1.34
ACGCCAU | -0.665
CGCCACA | -0.565
CCCACUU | -0.685
UAUGGAU | 1.21
UGUCAAG | -0.0544

Sequence | RNAcompete 7-mer binding Z-score
AUACGAU | -0.324
ACGAUAC | -0.487
GGGCUGC | 1.5
UGGGGUU | 3.29
CCCAGGG | 0.426
CAACAGU | -0.386
CGGCCGU | -0.292
AGUUGUC | -0.642
GCUUCGU | -0.678
CACUACU | -0.457
CGAUGGG | 2.22
UGCGGCA | 0.306
CAGGUAC | 0.68
GGUUGCG | 2.19
UACUCAG | -0.428
GUCCAUA | -0.623
AGCUGAA | 0.186
CCAUUUA | -0.99
ACUCCUU | -0.896
ACAGUGG | 1.24
CGAAUCG | -0.451
CGCGCCG | -0.402
UCCUUUC | -0.707
AAAUCCC | -0.86
AAGAACG | 0.144

Sequence | RNAcompete 7-mer binding Z-score
CCAAUGA | -0.711
CAAUCCG | -0.763
CAAGCUG | -0.519
AUCUGGA | -0.0252
AAGAAGG | 3.54
AGGGACU | 1.23
UGGUAGA | 2.34
GUGUGUU | 0.296
UAAAAGU | 0.0268
ACUUCAC | -0.776
GGUUCGA | 0.482
GUUUACA | -0.363
CCUUGAC | -0.909
GAGCGAU | 0.534
UUAGUAG | 0.264
CAAUAUG | -0.379
CGCGGUU | 0.348
AUCAUAG | -0.321
AAGUUUG | -0.194
CGUAAGC | -0.383
CACCCAC | -0.36
GGUCUAG | 0.235
GGCUCUU | -0.526
UUAGUUC | -0.675
UUAGAUU | -0.503

Sequence | RNAcompete 7-mer binding Z-score
GCUCUUU | -0.831
CUUGGCC | -0.571
CCACUAC | -0.623
UUCUCUU | -0.623
CUGCGAG | 0.128
AUGCACU | -0.542
CUAGACA | -0.613
AAAGUCC | -0.561
AGUGGCG | 1.69
AGUUUUA | -0.639
AUCUACU | -0.698
CGUAAAG | -0.116
UAGUGUC | -0.396
CGACUCA | -0.88
CCAGCUA | -0.717
UUCUACG | -0.841
ACUGACA | -0.318
AGCUCCC | -0.503
CUUCCUC | -0.694
GCUAUGC | -0.269
AGGCCGC | -0.805
AAUUUCG | -0.607
UUUUACG | -0.685
GUGACAG | 1.11
CCGCCAU | -0.617

Sequence | RNAcompete 7-mer binding Z-score
CAACCUA | -0.649
AGGGAUG | 4.59
ACCUGUA | -0.75
GGGCGCU | 0.667
UUGGUCA | 0.0788
UAAACCG | -0.62
UUAUAGG | 0.751
UACAGAA | -0.353
CACCUGU | -0.539
UAAGUAC | -0.496
CUUGGUA | 0.118
AUACAAC | -0.383
GACAGUG | 0.884
GGAUGAC | 1.51
UUACCAC | -0.565
CAGGGGG | 2.94
CUGAUCU | -0.831
UCAAACU | -0.785
UGACUUU | -0.753
GUAACCU | -0.451
CAACGUG | -0.0739
GUGUGGC | 1.62
ACCGGUA | 0.128
GUGUUAG | 0.452
UUCCAAC | -0.766

Sequence | RNAcompete 7-mer binding Z-score
AACCUAG | -0.415
AAGAAAU | -0.337
UCUGCCG | -0.789
AGUAGGG | 4.16
CCGUACU | -0.795
GGCAGAC | 0.436
GUAAUGC | -0.162
GUACCGG | 0.553
ACGUCCC | -0.72
AGCUGAC | -0.194
GAUACAU | -0.0707
CAGCGAC | -0.363
AGUUGCC | -0.435
ACCAGGU | 0.14
ACGCUGG | 0.326
UCUAGAC | -0.607
GGCUAGG | 1.72
